The values that follow are results of earlier work, collected in patent US5234903A, “Chemically modified hemoglobin as an effective, stable non-immunogenic red blood cell substitute” (Enzon, Inc., priority 1990, dated 1993).

The conditions of the series: no unit printed at the value.

B1: U.S. Pat. No. 4,777,244: hemoglobin modified by effector substance (pyridoxal phosphate or inositol hexaphosphate), cross-linked with a dialdehyde (protein, UniProt P69905 2-142; P68871 2-147, looked up)
Hemoglobin subunit alpha: VLSPADKTNVKAAWGKVGAHAGEYGAEALERMFLSFPTTKTYFPHFDLSHGSAQVKGHGKKVADALTNAVAHVDDMPNALSALSDLHAHKLRVDPVNFKLLSHCLLVTLAAHLPAEFTPAVHASLDKFLASVSTVLTSKYR
Hemoglobin subunit beta: VHLTPEEKSAVTALWGKVNVDEVGGEALGRLLVVYPWTQRFFESFGDLSTPDAVMGNPKVKAHGKKVLGAFSDGLAHLDNLKGTFATLSELHCDKLHVDPENFRLLGNVLVCVLAHHFGKEFTPPVQAAYQKVVAGVANALAHKYH
modifications: effector-modified, dialdehyde cross-linked
With B1, the P50 is on record as 38.6.
